Measured values reported in ChEMBL document CHEMBL4888484, “Replenishing the malaria drug discovery pipeline: Screening and hit evaluation of the MMV Hit Generation Library 1 (HGL1) against asexual blood stage Plasmodium falciparum ,using a nano luciferase reporter read-out” (2022).
In all, about 150,000 compounds went through this assay and about 540 (0.36%) showed an effect of 50% or more. Some of the results follow.

tested on: Plasmodium falciparum; assay: Primary screen in NF54 nanoGlo assay, in single point, at 2uM, 72h; a lower Z score goes with more inhibition; assay type: functional, Erythrocyte; conditions: timepoint 72 hour

Row | Structure (SMILES) | % Inhibition [%] | Z score
1 | CN(C)c1ncc(CNC[C@H]2CCCn3cc(C(C)(C)C)nc32)s1 | -6 | 0.53
2 | O=C([C@@H]1COc2ccccc2O1)N1CCN(c2ccc(-n3ccnc3)nn2)CC1 | -7 | 1.4
3 | Cc1ccncc1N1CCN(C(=O)c2cc3cccn3cn2)CC1 | -3 | 0.41
4 | Cc1cc(O)nc([C@H](C)N(C)CC2CCOCC2)n1 | -12 | 1.59
5 | Cc1cc(C(=O)O)nc(N2CCN(C3CCCCC3)CC2)n1 | -19 | 2.69
6 | COCc1ccc(-c2nc(-c3ccccn3)nn2[C@H]2CCS(=O)(=O)C2)o1 | -5 | 0.86
7 | Cc1cc(Cn2ccnc2-c2cncc(Br)c2)no1 | -17 | 1.95
8 | Cc1ccc(C2=NN(C(=O)CN(CCN3CCOCC3)C(=O)C3CCC3)[C@H](c3ccc4c(c3)OCO4)C2)cc1C | -7 | 0.66
9 | CC(=O)NCCNC(=O)c1csc(-c2cc3ccccc3n2C)n1 | 9 | -1.12
10 | Cc1ccccc1C(=O)OC1CCN(c2nncc3ccccc23)CC1 | 2 | -0.26
11 | Cc1cc(N2CCN(C)CC2)ccc1NC(=O)C[C@H](NC(N)=O)c1cccc(Oc2ccccc2)c1 | -3 | 0.5
12 | CCC(NC(=O)OC1CCCC1)(C(F)(F)F)C(F)(F)F | 9 | -1.39
13 | Cc1nnc(N2CCN(CCC(=O)N(C)CCC#N)CC2)s1 | -3 | 0.47
14 | CC(C)NC(=O)Nc1ccc(Cl)c(Cl)c1 | -1 | 0.08
15 | Cc1ccc(C(=O)OCC(=O)NC(C)(C)C)c(O)c1 | -10 | 1.31
16 | CCc1nc(-c2ccc(-c3cn[nH]c3)cc2)nn1C | 1 | -0.25
17 | CN(C)c1nc2c(c(=O)[nH]1)CCN(S(=O)(=O)N1CCCCCC1)C2 | -6 | 1.15
18 | Clc1ccc(-c2n[nH]cc2-c2nnc(-c3ccncc3)o2)cc1 | 2 | -0.28
19 | CC(C)(C)NC(=O)[C@]1(C)CCC(=O)N1CCc1c[nH]c2ccccc12 | -2 | 0.29
20 | COc1cc([C@H]2Nc3ccccc3C(=O)N2Cc2ccc3c(c2)OCO3)cc(Cl)c1OCC(N)=O | -7 | 0.91
21 | O=C(CCCc1ccccc1)N1CCC(Oc2ccccn2)CC1 | -5 | 0.97
22 | COC(=O)Cn1cc(C(O)(c2ccccc2)c2ccccc2)nn1 | -4 | 0.53
23 | Cc1nnnn1CCC(=O)NCC1(C(C)C)CC1 | -12 | 1.64
